Laboratory results from patent US7517874B2 (priority 2007, dated 2009).

What follows are molecules tested against human CB2 receptor (hCB2) (Homo sapiens, UniProt P34972) (assay: cell-based). Conditions: not given.
human CB2 receptor (hCB2), sequence (P34972 whole entry): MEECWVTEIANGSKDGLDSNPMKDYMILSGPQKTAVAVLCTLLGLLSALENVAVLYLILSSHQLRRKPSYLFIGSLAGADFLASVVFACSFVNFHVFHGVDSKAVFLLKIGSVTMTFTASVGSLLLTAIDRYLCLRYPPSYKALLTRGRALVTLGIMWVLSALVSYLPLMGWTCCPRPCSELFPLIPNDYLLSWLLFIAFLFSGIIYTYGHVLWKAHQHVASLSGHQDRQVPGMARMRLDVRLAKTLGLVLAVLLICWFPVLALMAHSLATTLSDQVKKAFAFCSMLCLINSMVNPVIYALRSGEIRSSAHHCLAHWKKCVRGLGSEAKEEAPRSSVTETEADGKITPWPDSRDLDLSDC
Format: cell-based
`CN1CCCn2c(-c3ccccc3)nc(C(=O)Nc3cc(C(C)(C)C)on3)c2C1` [Compound 595, N-(5-tert-butylisoxazol-3-yl)-8-methyl-3-phenyl-6,7,8,9-tetrahydro-5H-imidazo[1,5-a][1,4]diazepine-1-carboxamide] gave an EC50 greater than 10 µM. `CCN1CCn2c(-c3ccc(Cl)cc3)nc(C(=O)NCCC(C)C)c2C1` [Compound 158, 3-(4-chlorophenyl)-7-ethyl-N-isopentyl-5,6,7,8-tetrahydroimidazo[1,5-a]pyrazine-1-carboxamide] gave an EC50 greater than 10 µM. `CC(C)CN1CCn2c(-c3ccc(Cl)cc3)nc(C(=O)N[C@H](CO)C(C)(C)C)c2C1` [Compound 160, (S)-3-(4-chlorophenyl)-N-(1-hydroxy-3,3-dimethylbutan-2-yl)-7-isobutyl-5,6,7,8-tetrahydroimidazo[1,5-a]pyrazine-1-carboxamide] gave an EC50 greater than 10 µM. `CNC(=O)[C@@H](NC(=O)c1nc(-c2ccccc2)n2c1CN(CC(C)C)CCC2)C(C)(C)C` [Compound 320, (S)-N-(3,3-dimethyl-1-(methylamino)-1-oxobutan-2-yl)-8-isobutyl-3-phenyl-6,7,8,9-tetrahydro-5H-imidazo[1,5-a][1,4]diazepine-1-carboxamide] showed an EC50 greater than 10 µM. With `CC(C)(C)C(=O)N1CCn2c(-c3ccccc3)nc(C(=O)NC3C4(C)CCC(C4)C3(C)C)c2C1` (centres unmarked) [Compound 123, 3-phenyl-7-pivaloyl-N-(1,3,3-trimethylbicyclo[2.2.1]heptan-2-yl)-5,6,7,8-tetrahydroimidazo[1,5-a]pyrazine-1-carboxamide] the EC50 was greater than 10 µM. Molecule `CNC(=O)[C@@H](NC(=O)c1nc(-c2cncnc2)n2c1CNCC2)C(C)(C)C` [Compound 19, (S)-N-(3,3-dimethyl-1-(methylamino)-1-oxobutan-2-yl)-3-(pyrimidin-5-yl)-5,6,7,8-tetrahydroimidazo[1,5-a]pyrazine-1-carboxamide] has an EC50 greater than 10 µM. With `CNC(=O)[C@@H](NC(=O)c1nc(-c2ccc(-c3ccccc3)c(F)c2)n2c1CN(C)CCC2)C(C)(C)C` [Compound 419, (S)-N-(3,3-dimethyl-1-(methylamino)-1-oxobutan-2-yl)-3-(2-fluorobiphenyl-4-yl)-8-methyl-6,7,8,9-tetrahydro-5H-imidazo[1,5-a][1,4]diazepine-1-carboxamide] the EC50 was greater than 10 µM. `CNC(=O)[C@@H](NC(=O)c1nc(-c2ccc(Cl)cc2F)n2c1CN(C(=O)OC(C)(C)C)CCC2)C(C)(C)C` [Compound 313] was tested, and the EC50 was greater than 10 µM. Molecule `C[C@H](NC(=O)c1nc(-c2ccccc2)n2c1CN(C(=O)C1CC1)CC2)c1ccccc1` [Compound 124, (S)-7-(cyclopropanecarbonyl)-3-phenyl-N-(1-phenylethyl)-5,6,7,8-tetrahydroimidazo[1,5-a]pyrazine-1-carboxamide] has an EC50 greater than 10 µM. `CNC(=O)[C@@H](NC(=O)c1nc(-c2cccc(C(N)=O)c2)n2c1CN(C)CCC2)C(C)(C)C` [Compound 422, (S)-3-(3-carbamoylphenyl)-N-(3,3-dimethyl-1-(methylamino)-1-oxobutan-2-yl)-8-methyl-6,7,8,9-tetrahydro-5H-imidazo[1,5-a][1,4]diazepine-1-carboxamide] showed an EC50 greater than 10 µM. For `CNC(=O)[C@@H](NC(=O)c1nc(-c2ccc(F)c(C(=O)N3CCOCC3)c2)n2c1CN(C)CCC2)C(C)(C)C` [Compound 389, (S)-N-(3,3-dimethyl-1-(methylamino)-1-oxobutan-2-yl)-3-(4-fluoro-3-(morpholine-4-carbonyl)phenyl)-8-methyl-6,7,8,9-tetrahydro-5H-imidazo[1,5-a][1,4]diazepine-1-carboxamide], the EC50 was greater than 10 µM.

Same assay, conditions: agonist or inverse agonist at hCB2
For `CNC(=O)[C@@H](NC(=O)c1nc(/C=C/COC)n2c1CN(C)CC2)C(C)(C)C` [Compound 264, (S,E)-N-(3,3-dimethyl-1-(methylamino)-1-oxobutan-2-yl)-3-(3-methoxyprop-1-enyl)-7-methyl-5,6,7,8-tetrahydroimidazo[1,5-a]pyrazine-1-carboxamide], the “+/− HCB2” value was “+”. With `CNC(=O)[C@@H](NC(=O)c1nc(-c2cc(Cl)c(F)cc2F)n2c1CN(C)CCC2)C(C)(C)C` [Compound 370, (S)-3-(5-chloro-2,4-difluorophenyl)-N-(3,3-dimethyl-1-(methylamino)-1-oxobutan-2-yl)-8-methyl-6,7,8,9-tetrahydro-5H-imidazo[1,5-a][1,4]diazepine-1-carboxamide] the “+/− HCB2” value was “+”. With `CNC(=O)[C@H](CC(C)(C)C)NC(=O)c1nc(-c2cccc(F)c2)n2c1CN(C)CCC2` [Compound 548, (S)-N-(4,4-dimethyl-1-(methylamino)-1-oxopentan-2-yl)-3-(3-fluorophenyl)-8-methyl-6,7,8,9-tetrahydro-5H-imidazo[1,5-a][1,4]diazepine-1-carboxamide] the “+/− HCB2” value was “+”. For `CC(C)C[C@H](NC(=O)c1nc(-c2ccc(F)cc2)n2c1CN(C)CCC2)C(N)=O` [Compound 565, (S)-N-(1-amino-4-methyl-1-oxopentan-2-yl)-3-(4-fluorophenyl)-8-methyl-6,7,8,9-tetrahydro-5H-imidazo[1,5-a][1,4]diazepine-1-carboxamide], the “+/− HCB2” value was “+”. For `CNC(=O)[C@@H](NC(=O)c1nc(-c2ccc(F)c(C)c2)n2c1CN(C)CCC2)C(C)(C)C` [Compound 347, (S)-N-(3,3-dimethyl-1-(methylamino)-1-oxobutan-2-yl)-3-(4-fluoro-3-methylphenyl)-8-methyl-6,7,8,9-tetrahydro-5H-imidazo[1,5-a][1,4]diazepine-1-carboxamide], the “+/− HCB2” value was “+”. For `C[C@H](NC(=O)c1nc(-c2ccccc2)n2c1CN(C)CC2)C(C)(C)C` [Compound 51, (S)-N-(3,3-dimethylbutan-2-yl)-7-methyl-3-phenyl-5,6,7,8-tetrahydroimidazo[1,5-a]pyrazine-1-carboxamide], the “+/− HCB2” value was “+”. For `CNC(=O)[C@@H](NC(=O)c1nc(-c2cc(C)ccc2F)n2c1CN(C)CC2)C(C)(C)C` [Compound 251, (S)-N-(3,3-dimethyl-1-(methylamino)-1-oxobutan-2-yl)-3-(2-fluoro-5-methylphenyl)-7-methyl-5,6,7,8-tetrahydroimidazo[1,5-a]pyrazine-1-carboxamide], the “+/− HCB2” value was “+”. In the case of `CNC(=O)[C@@H](NC(=O)c1nc(-c2ccc(C)c(F)c2)n2c1CN(C)CCC2)C(C)(C)C` [Compound 360, (S)-N-(3,3-dimethyl-1-(methylamino)-1-oxobutan-2-yl)-3-(3-fluoro-4-methylphenyl)-8-methyl-6,7,8,9-tetrahydro-5H-imidazo[1,5-a][1,4]diazepine-1-carboxamide], the “+/− HCB2” value is reported as “+”. `CNC(=O)[C@@H](NC(=O)c1nc(CCCC2CCCC2)n2c1CN(C)CCC2)C(C)(C)C` [Compound 494, (S)-3-(3-cyclopentylpropyl)-N-(3,3-dimethyl-1-(methylamino)-1-oxobutan-2-yl)-8-methyl-6,7,8,9-tetrahydro-5H-imidazo[1,5-a][1,4]diazepine-1-carboxamide] was tested, and the “+/− HCB2” value was “+”. With `CC(C)(C)OC(=O)N1CCn2c(-c3ccccc3)nc(C(=O)NN3CCCCC3)c2C1` [Compound 35, tert-butyl 3-phenyl-1-(piperidin-1-ylcarbamoyl)-5,6-dihydroimidazo[1,5-a]pyrazine-7(8H)-carboxylate] the “+/− HCB2” value was “−”. With `CN1CCCn2c(-c3ccc(F)c(F)c3)nc(C(=O)N[C@@H](CC(C)(C)C)C(N)=O)c2C1` [Compound 586, (S)-N-(1-amino-4,4-dimethyl-1-oxopentan-2-yl)-3-(3,4-difluorophenyl)-8-methyl-6,7,8,9-tetrahydro-5H-imidazo[1,5-a][1,4]diazepine-1-carboxamide] the “+/− HCB2” value was “+”. In the case of `CN1CCCn2c(-c3cc(F)ccc3F)nc(C(=O)N[C@H](C(=O)N(C)C)C(C)(C)C)c2C1` [Compound 562, (S)-3-(2,5-difluorophenyl)-N-(1-(dimethylamino)-3,3-dimethyl-1-oxobutan-2-yl)-8-methyl-6,7,8,9-tetrahydro-5H-imidazo[1,5-a][1,4]diazepine-1-carboxamide], the “+/− HCB2” value is reported as “+”. With `CNC(=O)[C@@H](NC(=O)c1nc(-c2ccccc2)n2c1CN(S(=O)(=O)c1ccc(F)cc1)CC2)C(C)(C)C` [Compound 93, (S)-N-(3,3-dimethyl-1-(methylamino)-1-oxobutan-2-yl)-7-(4-fluorophenylsulfonyl)-3-phenyl-5,6,7,8-tetrahydroimidazo[1,5-a]pyrazine-1-carboxamide] the “+/− HCB2” value was “−”. `CNC(=O)[C@@H](NC(=O)c1nc(/C=C/CN2CCCC2)n2c1CN(C)CC2)C(C)(C)C` [Compound 288, (S,E)-N-(3,3-dimethyl-1-(methylamino)-1-oxobutan-2-yl)-7-methyl-3-(3-(pyrrolidin-1-yl)prop-1-enyl)-5,6,7,8-tetrahydroimidazo[1,5-a]pyrazine-1-carboxamide] was tested, and the “+/− HCB2” value was “−”. For `CNC(=O)[C@H](CC(C)C)NC(=O)c1nc(-c2ccc(F)cc2)n2c1CN(C)CCC2` [Compound 530, (S)-3-(4-fluorophenyl)-8-methyl-N-(4-methyl-1-(methylamino)-1-oxopentan-2-yl)-6,7,8,9-tetrahydro-5H-imidazo[1,5-a][1,4]diazepine-1-carboxamide], the “+/− HCB2” value was “+”. In the case of `CNC(=O)[C@@H](NC(=O)c1nc(-c2ccc(F)cc2)n2c1CN(C)CCC2)C(C)(C)C` [Compound 437, (S)-N-(3,3-dimethyl-1-(methylamino)-1-oxobutan-2-yl)-3-(4-fluorophenyl)-8-methyl-6,7,8,9-tetrahydro-5H-imidazo[1,5-a][1,4]diazepine-1-carboxamide], the “+/− HCB2” value is reported as “+”. In the case of `CCC(=O)N1CCn2c(-c3ccccc3)nc(C(=O)N[C@H](C(=O)NC)C(C)(C)C)c2C1` [Compound 189, (S)-N-(3,3-dimethyl-1-(methylamino)-1-oxobutan-2-yl)-3-phenyl-7-propionyl-5,6,7,8-tetrahydroimidazo[1,5-a]pyrazine-1-carboxamide], the “+/− HCB2” value is reported as “+”. `CCNC(=O)[C@@H](NC(=O)c1nc(-c2ccccc2)n2c1CN(C)CCC2)C(C)(C)C` [Compound 478, (S)-N-(1-(ethylamino)-3,3-dimethyl-1-oxobutan-2-yl)-8-methyl-3-phenyl-6,7,8,9-tetrahydro-5H-imidazo[1,5-a][1,4]diazepine-1-carboxamide] was tested, and the “+/− HCB2” value was “+”.
